Data published in PubChem BioAssay AID1476 (National Center for Advancing Translational Sciences (NCATS), 2009).
The whole screen tested about 200,000 compounds, of which about 4,500 (2.2%) were called active. Inconclusive means that the source gave no clear call. Such entries were picked first, then a sample of the others. The call rests on the fitted dose curve; in most records, active means well fitted inhibition curve with a large enough effect; inconclusive means small, poorly fitted or top-dose-only effect, or effect the other way; inactive means flat fitted curve, though single readings scatter. Potencies beside an inconclusive call are fits to weak or partial responses and may not hold up.

target: Cruzipain (Trypanosoma cruzi) (UniProt P25779); test: qHTS Assay for Promiscuous and Specific Inhibitors of Cruzain (without detergent); conditions: purified cruzain, Z-FR-AMC fluorescence, no detergent; further: nearly all actives have a fitted effect of over 40% in size;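 on max response, negative = inhibition: plate controls were enzyme without inhibitor for no effect and buffer without enzyme for full effect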
UniProt P25779, sequence (P25779 whole entry, looked up): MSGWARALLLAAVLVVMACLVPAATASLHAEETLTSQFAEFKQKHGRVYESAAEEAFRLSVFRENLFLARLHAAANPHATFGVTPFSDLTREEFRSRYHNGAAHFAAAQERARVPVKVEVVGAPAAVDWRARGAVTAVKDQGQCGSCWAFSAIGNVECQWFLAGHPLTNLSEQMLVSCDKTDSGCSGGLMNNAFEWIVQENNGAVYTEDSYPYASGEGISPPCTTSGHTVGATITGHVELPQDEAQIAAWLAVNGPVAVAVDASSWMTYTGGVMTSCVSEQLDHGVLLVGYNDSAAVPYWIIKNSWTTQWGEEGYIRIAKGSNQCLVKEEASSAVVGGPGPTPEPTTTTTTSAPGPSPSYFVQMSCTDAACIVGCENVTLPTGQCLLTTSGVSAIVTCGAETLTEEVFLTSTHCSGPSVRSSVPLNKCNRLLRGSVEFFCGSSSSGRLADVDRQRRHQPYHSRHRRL
How it was run: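 Detergent-free condition (0.00005% Triton X-100) in acetate buffer pH 5.5 with DTT. 1.5 nM enzyme and compound were pre-mixed 15 min, then 2 uM Z-FR-AMC substrate added; reaction progress from fluorescence change between first and third reads (60 s).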
Potency means the concentration at half of the fitted maximal effect; tags describe the fitted curve by direction and shape.

Row | SMILES | Potency | max response, negative = inhibition
1 | CCn1c(SCc2nc3ccccc3[nH]2)nnc1-c1ccncc1 | inconclusive: 31.6 µM [inhibitor, single point] | 
2 | CC[C@@H]1C=C(C)C[C@H](C)C[C@H](OC)[C@H]2O[C@@](O)(C(=O)C(=O)N3CCCC[C@H]3C(=O)O[C@H](/C(C)=C/[C@@H]3CC[C@@H](O)[C@H](OC)C3)[C@H](C)[C@@H](O)CC1=O)[C@H](C)C[C@@H]2OC | inconclusive: 3.98 µM [activator, full curve] | 
3 | CCc1ccc(N2CSC3=C(C#N)C(c4cccs4)CC(=O)N3C2)cc1 (stereo unspecified) | inconclusive: 31.6 µM [inhibitor, single point] | 
4 | Cc1nc2ccc(C(=O)OCc3ccccc3Br)cc2nc1C | inconclusive: 39.8 µM [activator, single point] | 
5 | CCCCOCCOCCSC#N |  | inactive: -4.05%
6 | COc1cc(C(=O)OCC(=O)c2cc(C)n(C)c2C)cc(NC(=O)c2ccco2)c1OC | inconclusive: 31.6 µM [activator, single point] | 
7 | Cc1ccc2c(c1)-c1nc3ccccc3cc1C2=NC1CCCCC1 | inconclusive: 12.6 µM [activator, partial curve] | 
8 | CCN(CC)C(=O)CSCc1cnn(-c2ccccc2)c1-n1cccc1 | inconclusive: 25.1 µM [activator, single point] | 
9 | Cc1ccc(S(=O)(=O)n2c3ccc(Cl)cc3c3nc(C)sc32)cc1 | inconclusive: 31.6 µM [inhibitor, single point] | 
10 | COCCn1c(C)cc(C(=O)COC(=O)c2n[nH]c3ccccc23)c1C | inconclusive: 12.6 µM [activator, single point] | 
11 | COc1ccc(C)cc1NC(=O)C(OC(=O)c1ccc([N+](=O)[O-])o1)c1ccccc1 (stereo unspecified) | inconclusive: 39.8 µM [inhibitor, single point] | 
12 | O=c1c2ccccc2n2c(-c3ccccc3F)nnc2n1CCc1ccccc1 | inconclusive: 31.6 µM [activator, single point] | 
13 | CC[C@@]1([C@@H]2O[C@@H]([C@H]3O[C@@](O)(CO)[C@H](C)C[C@@H]3C)C[C@@H]2C)CC[C@H]([C@]2(C)CC[C@]3(C[C@H](O)[C@@H](C)[C@@H]([C@@H](C)[C@@H](OC)C(C)C(=O)O)O3)O2)O1 (stereo partly specified) |  | inactive: -1.54%
14 | COc1ccc2c(c1)CC/C(=C\C=C\c1ccccc1)C2=O | inconclusive: 12.6 µM [inhibitor, partial curve] | 
15 | Cn1c(=O)c(CCc2ccccc2)nc2cnc(OCc3ccccc3)nc21 |  | inactive: -2.55%
16 | Cn1cccc1C(=O)NC(=O)COC(=O)Cc1coc2ccc3ccccc3c12 | inconclusive: 25.1 µM [inhibitor, single point] | 
